Out of some 150,000 compounds screened, about 540 (0.36%) showed an effect of 50% or more. The list shows a part of the results.

The text below walks through data of ChEMBL document CHEMBL4888484, “Replenishing the malaria drug discovery pipeline: Screening and hit evaluation of the MMV Hit Generation Library 1 (HGL1) against asexual blood stage Plasmodium falciparum ,using a nano luciferase reporter read-out” (2022).

The assay concerns Plasmodium falciparum. As to the kind of experiment: Primary screen in NF54 nanoGlo assay, in single point, at 2uM, 72h; a lower Z score goes with more inhibition. In kind it is functional, Erythrocyte. Particulars: timepoint 72 hour.
As to `NC(=O)c1ncn([C@H]2CCCN(Cc3ncccc3Cl)C2)n1`, the “% Inhibition” value was found to be 7% and the Z score is given as -1.15.
Regarding `CCCNC(=O)c1nc(N2CCCC2)c2ccccc2n1`, the “% Inhibition” value is given as -8% and the Z score is recorded as 1.24.
The corresponding values for `Cc1cccnc1-n1nc(C(C)C)nc1[C@H]1CC(=O)N(c2cccc(O)c2)C1` are -6% and 1.12.
The corresponding values for `CC(=O)NCc1ccc(-c2cc(NC3CCCC3)nc3[nH]ccc23)nc1` are -10% and 1.14.
As for `Cc1c([C@H](C)NCc2ccc(NC(=O)c3ccc(F)cc3)cc2)cnn1C(C)C`, the “% Inhibition” value came out at 1% and the Z score is -0.09.
For `O=C(c1cccc(F)c1)N1CCOc2ccc(CN3CCCC3)cc2C1` the same measures were -10% and 1.09.
The corresponding values for `CNc1cc(C)nc(/C=C/C2CCCCC2)n1` are 1% and -0.14.
Take `O=C(OC1CCCCC1)C1CCN(S(=O)(=O)c2ccc(Cl)cc2)CC1`: the “% Inhibition” value is reported as -9% and the Z score is 1.29.
The corresponding values for `CCS(=O)(=O)N1CC[C@H](c2ncc(C)n2CCCOC)C1` are 1% and -0.1.
Turning to `CC(=O)N1CCC(NC(=O)c2ccc(Cl)o2)CC1`, the “% Inhibition” value is on record as -2% and the Z score is recorded as 0.35.
Regarding `O=C(OCc1nc(-c2ccncc2)no1)c1ccc(F)cn1`, the “% Inhibition” value is recorded as -5% and the Z score was 0.51.
Regarding `O=C(Cc1cccs1)Nc1nnc(C2CCCCC2)o1`, the “% Inhibition” value was -17% and the Z score was 1.97.
On to `CCc1cnc(NC(=O)c2c[nH]c(C)n2)o1`, for which the “% Inhibition” value was -11% and the Z score is given as 1.71.
On to `Cc1ccc(C(=O)NC2CCCCCC2)c(=O)[nH]1`, for which the “% Inhibition” value is given as -8% and the Z score amounted to 0.99.
In the case of `O=C1CNC(=O)N1c1cccc(NS(=O)(=O)c2ccccc2)c1`, the “% Inhibition” value is recorded as -3% and the Z score came to 0.56.
In the case of `Cc1ccc(Br)c(NC(=O)N(C)CC(C)(CO)CO)c1`, the “% Inhibition” value is reported as -11% and the Z score is 1.77.
On to `O=S(=O)(CC1CCCC1)NCCc1nccs1`, for which the “% Inhibition” value is listed as -2% and the Z score is given as 0.19.
Regarding `Nc1cc(-c2ncnn2C2Cc3ccccc3C2)ccn1`, the “% Inhibition” value was -11% and the Z score was 2.08.
As to `CCCNC(=O)[C@@H]1CCCC[C@@H]1C(=O)Nc1ccc(NC(=O)C(C)(C)C)c(C)c1`, the “% Inhibition” value is listed as 1% and the Z score was -0.21.
As to `Cn1cccc1C(=O)Nc1cccc(-n2ncc(C(=O)O)c2C(F)(F)F)c1`, the “% Inhibition” value is listed as -10% and the Z score was 1.11.
In the case of `Cc1cc(F)ccc1N1C[C@]23C=C[C@H](O2)C(C(=O)N2CCN(C(C)C)CC2)C3C1=O` (some centres undefined), the “% Inhibition” value is -1% and the Z score was determined as 0.14.
Regarding `CCCn1ncc(C(=O)N[C@H]2CCS(=O)(=O)C2)c1C1CC1`, the “% Inhibition” value is on record as -1% and the Z score came to 0.22.
Regarding `CC1(C)CCc2nc(NC(=O)[C@@H]3CCC(=O)N3)sc2C1`, the “% Inhibition” value is given as -3% and the Z score worked out at 0.44.
With `O=C(CN1CCC2(CC1)NC(c1ccc(OC(F)(F)F)cc1)=NO2)NCc1ccc(F)cc1`, the “% Inhibition” value came out at 31% and the Z score was -4.22.
On to `COc1ccc(-c2cc(N(C)C(=O)C(C)C)n[nH]2)cc1`, for which the “% Inhibition” value is reported as -8% and the Z score stood at 1.22.
In the case of `Cc1nccn1-c1cc(CNC(=O)C2CCCCC2)ccn1`, the “% Inhibition” value was -10% and the Z score is 2.03.
Regarding `CN(C)C(=O)CN1CCN(Cc2c[nH]nc2-c2cccc3ccccc23)CC1`, the “% Inhibition” value is reported as -16% and the Z score was 1.71.
For the compound `O=C(NCC1(N2CCCC2)CCOCC1)c1ccc2nc(C(F)(F)F)cn2c1`, the “% Inhibition” value was -1% and the Z score amounted to 0.16.
As for `CC(C)N1C[C@@H]2OCC(=O)N(CC3CCCCC3)[C@@H]2C1`, the “% Inhibition” value was -13% and the Z score is reported as 1.69.
For `CCN(CC)S(=O)(=O)c1ccc2c(c1)N(CC(=O)N1CCCCCC1)C(=O)CO2` the same measures were -15% and 1.91.
With `O=C(NCCc1nnc2ccccn12)c1cc(-c2cccnc2)n[nH]1`, the “% Inhibition” value is -12% and the Z score is reported as 1.57.
The corresponding values for `COc1ccc(C)cc1NC(=O)CCc1c(C)nn(-c2ccc3nncn3n2)c1C` are -8% and 0.97.
For `O=C(Nn1cc(C(=O)Nc2ccc(F)cc2Cl)c2ccccc2c1=O)c1cnccn1` the same measures were 13% and -1.89.
Turning to `Cn1nc(C(=O)Nc2ccc3c(c2)CCC3)ccc1=O`, the “% Inhibition” value was -15% and the Z score was determined as 2.37.
As for `Cc1noc(CNC(=O)Cc2cccc(Br)c2)n1`, the “% Inhibition” value worked out at 5% and the Z score is -0.98.
As to `CCC(=O)Nc1c(C)noc1/C=C\c1ccc(S(=O)(=O)Nc2ccc(F)c(F)c2)cc1`, the “% Inhibition” value is reported as -20% and the Z score amounted to 2.76.
For `COc1cc(Cl)cc2cc(C(=O)N(C)CCC[C@H]3CCCO3)oc12`, the “% Inhibition” value is reported as -3% and the Z score was 0.62.
Consider `Cc1cc(=O)n(CC(=O)NCc2ccc(F)cc2)c(N2CCCCC2)n1`, for which the “% Inhibition” value is on record as -21% and the Z score came out at 2.21.
As to `O=C(c1nccnc1C(=O)N1CCc2ccccc2C1)N1CCCCC1`, the “% Inhibition” value is -8% and the Z score is 1.6.
Turning to `CCn1c(C)ccc(C(=O)NC2(Cc3ccccc3C)CC2)c1=O`, the “% Inhibition” value is 2% and the Z score is on record as -0.25.
As to `Cc1cccc(NC(=O)[C@@H]2CCCN2C(=O)OC(C)(C)C)c1C`, the “% Inhibition” value is given as -2% and the Z score came out at 0.35.
With `CN(C(=O)[C@H]1CC12CCCCC2)c1nncs1`, the “% Inhibition” value is reported as -12% and the Z score amounted to 1.93.
